{"source": "the supplement of paper PMC11417369", "note": "Some of the results follow.", "data": [{"test_system": "PF3D7_0420300 AP2 domain 1 (GST-tagged)", "assay": "gcPBM binding intensity (ln(normalized median fluorescence intensity)); higher = stronger DNA binding", "outline": "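The binding buffer was 1× PBS containing 1% milk, 0.2 mg/ml BSA, 0.5% salmon testes DNA and 0.03% Triton X-100. In it, GST-tagged P. falciparum DNA-binding domains expressed in E. coli were applied for 1 h to an Agilent 4 × 180k array of primer-extended double-stranded 36-bp intergenic genomic probes plus negative controls. Binding intensity, read with Alexa488 anti-GST antibody and a 488 nm scan, is the highest Masliner-normalised natural-log median intensity across replicate spots of either probe orientation.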", "values": [{"sequence": "ATAGAAATAAAATAAAATAAAAAAAAAATAATGAAA [CACACA_negctrl_site1565]", "gcPBM binding intensity (ln)": 9.45}, {"sequence": "TTATAATAAGATTGTTGTACTTATATTCCTTCTATA [XGTACX_site3173]", "gcPBM binding intensity (ln)": 9.27}, {"sequence": "AATACATATTCAAAGGTGCAAAATAAAAATATACAT [GTGCAC_site9743]", "gcPBM binding intensity (ln)": 9.63}, {"sequence": "TAGTTATAAGAGTTACAAAGAATACCGGAAATATAG [CACACA_negctrl_site1829]", "gcPBM binding intensity (ln)": 9.39}, {"sequence": "TGTTTTGTATATATAGCATGCAGTAAGGGAAAAAAA [TGCATGCA_site652]", "gcPBM binding intensity (ln)": 9.29}, {"sequence": "TCGTTTCATATTTATCATGAGATAATCACACGAACA [TGCATGCA_negctrl_site497]", "gcPBM binding intensity (ln)": 9.08}, {"sequence": "AATGTCAATTTTAATAGTACACAAATATATATATAT [XGTACX_site521]", "gcPBM binding intensity (ln)": 9.18}, {"sequence": "AATGACCATTTTTAAAATTACAAATACATACAACTG [TGCATGCA_negctrl_site420]", "gcPBM binding intensity (ln)": 9.22}, {"sequence": "AAGTATTATTATAAGACACACATGTATTTAAGTATA [CACACA_site4922]", "gcPBM binding intensity (ln)": 9.42}, {"sequence": "TAATTTTTATTTATAATAATATATGACATATATCCA [XGTACX_negctrl_site359]", "gcPBM binding intensity (ln)": 8.91}, {"sequence": "GGAATAATATAAAACACACACATAAATATAAATATA [CACACA_site3376]", "gcPBM binding intensity (ln)": 9.9}, {"sequence": "TAATTTTTTTTTTTTTTTTTTTTTTTTTTTTTCCTT [CACACA_negctrl_site1095]", "gcPBM binding intensity (ln)": 8.54}, {"sequence": "TTTTATTCCTATTTATTTATATTTTTGTCTTATATC [CACACA_negctrl_site125]", "gcPBM binding intensity (ln)": 9.46}, {"sequence": "TTAAGAATATCTACATGTACATACCAAAGAAATACA [XGTACX_site3125]", "gcPBM binding intensity (ln)": 9.27}, {"sequence": "ATGAACAAAATGTAATGTACGAATAATTATTCATAT [XGTACX_site4812]", "gcPBM binding intensity (ln)": 9.33}, {"sequence": "TATAGACAAACACATACATGCATACATACATACATA [TGCATGCA_site273]", "gcPBM binding intensity (ln)": 9.34}, {"sequence": "AAAAAAAAGTTCTACACACACAAAAAAATATTTTTT [CACACA_site2309]", "gcPBM binding intensity (ln)": 9.74}, {"sequence": "GTGTGCTTTTTACGAGTGCAAGTATTTTGGTGGTTA [GTGCAC_site9496]", "gcPBM binding intensity (ln)": 9.41}, {"sequence": "GTACACATATAATATACACACAACAAATATGCACAT [CACACA_site1010]", "gcPBM binding intensity (ln)": 9.92}, {"sequence": "ATTTTTTATGAAAATAAACACACGATTTATTATATA [CACACA_site1312]", "gcPBM binding intensity (ln)": 9.16}, {"sequence": "TTTTCAGAAAAGAGAAACTTTATTTTTCACAACCGA [TGCATGCA_negctrl_site389]", "gcPBM binding intensity (ln)": 8.85}, {"sequence": "TAAAAAATTATTAAACGTACGAGACTTTTTATCAGT [XGTACX_site2219]", "gcPBM binding intensity (ln)": 9.13}, {"sequence": "TGTAGTCATTAGTCAAATTAGAATTAAATATATATT [GTGCAC_negctrl_site643]", "gcPBM binding intensity (ln)": 9.03}, {"sequence": "CATAAAAATGGATACACACACATAATATATTTATAT [CACACA_site7669]", "gcPBM binding intensity (ln)": 9.85}, {"sequence": "ACAATATATTCATATTGTACATAAAATAAGGCTAAC [XGTACX_site6728]", "gcPBM binding intensity (ln)": 9.47}, {"sequence": "TTATATATAGATCACACACACACACCGGTTTTAAAA [CACACA_site4220]", "gcPBM binding intensity (ln)": 10.2}, {"sequence": "AAATTTTAATTAGGAACACACATATATATATATATA [CACACA_site5673]", "gcPBM binding intensity (ln)": 9.13}, {"sequence": "TATTTATCTATATATTGTACTTATTAGTCTTAATGT [XGTACX_site4242]", "gcPBM binding intensity (ln)": 9.39}, {"sequence": "TCTTTTTTAATATAATATATTTTTATTAAGTAAATC [TGCATGCA_negctrl_site408]", "gcPBM binding intensity (ln)": 8.94}, {"sequence": "TAAATTTATGGACACACACACATATATATATATATA [CACACA_site4620]", "gcPBM binding intensity (ln)": 9.72}, {"sequence": "TATAAAAATAATATTACACACATGTAAAATGGGGGT [CACACA_site9071]", "gcPBM binding intensity (ln)": 9.81}, {"sequence": "AGGAATATCGAAAACTGTACTTGTATGTTTCATAAA [XGTACX_site6143]", "gcPBM binding intensity (ln)": 9.02}, {"sequence": "AATTGTATGTATGCCTGTACATATGTCTATCTTAAG [XGTACX_site1927]", "gcPBM binding intensity (ln)": 9.32}, {"sequence": "ATTTATTTATTTTTTTGTACTTATAATTTTTATTAT [XGTACX_site2656]", "gcPBM binding intensity (ln)": 9.46}, {"sequence": "TATTTTATATGAGGCACACAAATTTTAATTGTTATT [CACACA_site725]", "gcPBM binding intensity (ln)": 9.14}, {"sequence": "TATATTTAAATTCTTTCAAATCATGTTGTAATTTTT [CACACA_negctrl_site1349]", "gcPBM binding intensity (ln)": 9.08}, {"sequence": "ATACACTTAATATTATGTACATATATAAAAAAAATA [XGTACX_site1500]", "gcPBM binding intensity (ln)": 9.19}, {"sequence": "TGAGTATATAAATACACACACATATATATATTTTAA [CACACA_site5130]", "gcPBM binding intensity (ln)": 9.61}, {"sequence": "TTTTATTTTTAAGGATGTACTCAATTGTTTATATAC [XGTACX_site3965]", "gcPBM binding intensity (ln)": 9.15}, {"sequence": "TTTTTTTTTAATAAAATTATAATAAATATGAAATTA [XGTACX_negctrl_site369]", "gcPBM binding intensity (ln)": 8.56}, {"sequence": "ATATATATATATATATGTACACATATATATACTCAC [XGTACX_site8043]", "gcPBM binding intensity (ln)": 9.37}, {"sequence": "GCACATATGAATATAATACACACTTGTATTATTAAT [CACACA_site1841]", "gcPBM binding intensity (ln)": 9.44}, {"sequence": "ATTTTATATACAAAATGTACATATTTATTATATATG [XGTACX_site6732]", "gcPBM binding intensity (ln)": 9.22}, {"sequence": "GGAGCTATCTCCTGCACACACAATTTTTTTTTTTTT [CACACA_site2240]", "gcPBM binding intensity (ln)": 9.52}, {"sequence": "AAGGATACGCAAAAATGTACAAAATGCTTATAAATA [XGTACX_site984]", "gcPBM binding intensity (ln)": 9.19}, {"sequence": "ATTAAAATCATATACACACCCATATATATATATATA [CACACA_site5050]", "gcPBM binding intensity (ln)": 9.48}, {"sequence": "GAATAAATACCGGTGTGTACTTAAATCATTCACGAA [XGTACX_site3174]", "gcPBM binding intensity (ln)": 9.5}, {"sequence": "ATACATATCTACCTATGTACATAATACAACAAAGAT [XGTACX_site323]", "gcPBM binding intensity (ln)": 9.4}, {"sequence": "GCATGCACGGAAAAAAGTACATATATAAATTTGGTT [XGTACX_site3393]", "gcPBM binding intensity (ln)": 9.03}, {"sequence": "ATCGTTATATAATGTTGTACTTGTTATATATATATA [XGTACX_site7582]", "gcPBM binding intensity (ln)": 9.7}, {"sequence": "GGTTCTAAAAAGGGAAGTACATGGAAAAATATAAAT [XGTACX_site4639]", "gcPBM binding intensity (ln)": 9.34}, {"sequence": "AAAATTATTATGAAAAGTACAAATATGTAAACATAC [XGTACX_site5517]", "gcPBM binding intensity (ln)": 9.32}, {"sequence": "AAAATTTAGCAAAGGTGTACAAAAGATAATTAGAGT [XGTACX_site3467]", "gcPBM binding intensity (ln)": 9.77}, {"sequence": "TTTTTTAAATATATTTGTACATATGAAATAAAGATA [XGTACX_site3841]", "gcPBM binding intensity (ln)": 8.94}, {"sequence": "AATATATTTTGATATGAACAATTAATAATTTCAAAT [GTGCAC_negctrl_site170]", "gcPBM binding intensity (ln)": 9.12}]}]}
